This is one part of the list.
Assays:
Assay in all cases: glycan array binding signal (z-score within array); higher = stronger binding
Details in all cases: glycan notation: IUPAC condensed, linker removed
[1] = target: GlcNAc(b1-3)Gal(b1-4)GlcNAc(b1-3)Gal(b1-4)GlcNAc(b1-3)GalNAc
How it was run: (§1)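 Columns mapping to the same glycan were averaged after glycan names were converted to IUPAC-condensed notation. The data come from 3228 arrays in the Consortium for Functional Glycomics database, limited to those with an available protein sequence. Binding is reported as a within-array Z-score averaged across arrays of one protein sequence and across linkers.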

[2] = target: GlcNAc(b1-3)Gal(b1-4)GlcNAc(b1-3)GalNAc
How it was run: as §1

[3] = target: GlcNAc(b1-3)Gal(b1-4)GlcNAc(b1-3)[GlcNAc(b1-3)Gal(b1-4)GlcNAc(b1-3)]GalNAc
How it was run: as §1

[4] = target: GlcNAc(b1-3)Gal(b1-4)GlcNAc(b1-6)[Gal(b1-3)]GalNAc
How it was run: as §1

[5] = target: GlcNAc(b1-3)Gal(b1-4)GlcNAc(b1-6)[GlcNAc(b1-3)Gal(b1-3)]GalNAc
How it was run: as §1

[6] = target: GlcNAc(b1-3)Gal(b1-4)GlcNAc(b1-6)[GlcNAc(b1-3)]Gal(b1-4)GlcNAc
How it was run: as §1

[7] = target: GlcNAc(b1-3)GalNAc
How it was run: as §1

[8] = target: GlcNAc(b1-3)Man
How it was run: as §1

[9] = target: GlcNAc(b1-3)[GlcNAc(b1-4)][GlcNAc(b1-6)]GlcNAc
How it was run: as §1

[10] = target: GlcNAc(b1-3)[GlcNAc(b1-6)]Gal(b1-4)GlcNAc
How it was run: as §1

[11] = target: GlcNAc(b1-3)[GlcNAc(b1-6)]GalNAc
How it was run: as §1

[12] = target: GlcNAc(b1-4)Gal(b1-4)GlcNAc
How it was run: as §1

[13] = target: GlcNAc(b1-4)GlcNAc
How it was run: as §1

[14] = target: GlcNAc(b1-4)GlcNAc(b1-4)GlcNAc
How it was run: as §1

[15] = target: GlcNAc(b1-4)GlcNAc(b1-4)GlcNAc(b1-4)GlcNAc(b1-4)GlcNAc
How it was run: as §1

[16] = target: GlcNAc(b1-4)GlcNAc(b1-4)GlcNAc(b1-4)GlcNAc(b1-4)GlcNAc(b1-4)GlcNAc
How it was run: as §1

[17] = target: GlcNAc(b1-4)[GlcNAc(b1-6)]GalNAc
How it was run: as §1

[18] = target: GlcNAc(b1-6)Gal(b1-4)GlcNAc
How it was run: as §1

[19] = target: GlcNAc(b1-6)GalNAc
How it was run: as §1

[20] = target: GlcNAc6S(b1-3)Gal(b1-4)GlcNAc
How it was run: as §1

[21] = target: Kdn(a2-3)Gal(b1-3)GalNAc
How it was run: as §1

[22] = target: Kdn(a2-3)Gal(b1-3)GlcNAc
How it was run: as §1

[23] = target: Kdn(a2-3)Gal(b1-4)Glc
How it was run: as §1

[24] = target: Kdn(a2-3)Gal(b1-4)GlcNAc
How it was run: as §1

[25] = target: Kdn(a2-3)Gal(b1-4)[Fuc(a1-3)]GlcNAc
How it was run: as §1

[26] = target: Kdn(a2-6)Gal(b1-4)GlcNAc
How it was run: as §1

[27] = target: Man(a1-2)Man(a1-2)Man(a1-3)Man
How it was run: as §1

[28] = target: Man(a1-2)Man(a1-2)Man(a1-6)[Man(a1-3)]Man
How it was run: as §1

[29] = target: Man(a1-2)Man(a1-3)Man
How it was run: as §1

[30] = target: Man(a1-2)Man(a1-3)[Man(a1-2)Man(a1-6)]Man
How it was run: as §1

B1: PX9896A-bth-573-26-573 (Bacteroides thetaiotaomicron) (protein)
chain: ETNNLKTKEDMYKYFGTSKSMLTHVYSYMPQGYQLFATSGGIFTEDRYSMRDCASDDGEFGAYADNIQNTNNGNWSPIKTYDDSWTLYRGIRAANSFIAEIAQVDFTRYEHDGQYTNWMKQLKYFPYEARVLRAHYFFELARRYGDIAMPLEVLTEEEANTIGKTPFSEVISFIVSECDDAANNLPDSYVNEPGAEIGRVTKGFAMAVKSKALLYAASKLHNPSMDTELWKKSAKAAIDIINTGLYSLDPQESANNLDSKEVVLMRINGDDSDFEMFNLPLRMTAGTRTSSLIPYSNYPSQNLVDAFETVNGYKVTLENTGWVCEDPAFDPQSPYENRDKRFYRAILANGMSFKDYTIETFKGGADDGIVSQGGSPTGYFLRKYIQEATSFEPGKEAVSKHHWVIYRYAETLLTYAESMVNAFNDVNYTDETYKYSALWAINEVRKNADMPLIPSMGKDEFMERLYNEWRVEFAFEDHRFWDVRRWKIADTTQRELYGVKIEKQADGTFNFYKNLYETRNWRDCMYLYPIPQSELYKNTNLNPQNTGW
glycan array binding signal (z-score) [1]: 0.762 | glycan array binding signal (z-score) [2]: -0.039 | glycan array binding signal (z-score) [3]: -0.155 | glycan array binding signal (z-score) [4]: -0.449 | glycan array binding signal (z-score) [5]: -0.058 | glycan array binding signal (z-score) [6]: -0.532 | glycan array binding signal (z-score) [7]: -0.418 | glycan array binding signal (z-score) [8]: -0.375 | glycan array binding signal (z-score) [9]: -0.364 | glycan array binding signal (z-score) [10]: -0.58 | glycan array binding signal (z-score) [11]: -0.616 | glycan array binding signal (z-score) [12]: -0.691 | glycan array binding signal (z-score) [13]: -0.169 | glycan array binding signal (z-score) [14]: 0.173 | glycan array binding signal (z-score) [15]: -0.224 | glycan array binding signal (z-score) [16]: -0.604 | glycan array binding signal (z-score) [17]: -0.509 | glycan array binding signal (z-score) [18]: -1.22 | glycan array binding signal (z-score) [19]: -0.811 | glycan array binding signal (z-score) [20]: 0.875 | glycan array binding signal (z-score) [21]: 0.1 | glycan array binding signal (z-score) [22]: -0.533 | glycan array binding signal (z-score) [23]: 0.496 | glycan array binding signal (z-score) [24]: -0.384 | glycan array binding signal (z-score) [25]: -0.25 | glycan array binding signal (z-score) [26]: 0.126 | glycan array binding signal (z-score) [27]: -0.707 | glycan array binding signal (z-score) [28]: 0.075 | glycan array binding signal (z-score) [29]: -0.062 | glycan array binding signal (z-score) [30]: -0.577
